According to the RNAGym collection of RNA variant scans (doi:10.1073/pnas.2313332121):
Variants at the background level are over-represented here.

B1: TPR 5TU (parent)
chain: GGAUCUUCUCGAUCUAACAAAAAAGACAAAUCUGCCACAAAGCUUGAGAGCAUCUUCGGAUGCAGAGGCGGCAGCCUUCGGUGGCGCGAUAGCGCCAACGUUCUCAACUAUGACACGCAAAACGCGUGCUCCGUUGAAUGGAGUUUAUCAUG

Variants of: B1
Test: polymerase ribozyme fitness, log enrichment relative to wild type (log ratio); higher = more active; in vitro selection for triplet polymerase activity
How it was run: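 Fitness compares each genotype's enrichment to that of the wild type on a logarithmic scale, averaging replicates with inverse-variance weights. The logarithm is base 2. Enrichment came from Illumina sequencing of input and output libraries after one triplicate round of in vitro selection, which included frozen incubation at −7 °C, of PCR-built, transcribed mutant libraries of each subunit of a heterodimeric triplet polymerase ribozyme. Only genotypes with ≥10 input reads and ≥1 read per output were kept.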

Row | Variant | polymerase ribozyme fitness (log ratio)
1 | GGAUCUUCUCGAUCUAACAAAAAAGACAAAUCUGCCACAAAGCUUGAAAGCAUCUUCGGAUGCAGAGGCAGCAGCCUUCGGCGGCACGAUAGCGCCAACGUUAUCAACUAUGACACGCAAAACGCGUGCUCCGUUGAAUGGAGUUUAUCAUG | ≤ -4.2
2 | GGAUCUUCUCGAUCUAACAAAAAAGACAAAUCUGCCACAAAGCUUGAAAGCAUCUUCGGGUGCAGUGGCGGCAGCCUUUGGUGCCGCGAUAGCGCCAGCGUUCUCCACUAGGACACGCAAAACGCGUGCUCCGUUGAAUGGAGUUUAUCAUG | ≤ -4.2
3 | GGAUCUUCUCGAUCUAACAAAAAAGACAAAUCUGCCACAAAGCUUGAAACCAUCAUCGGAUGCAGAGGCGGCAGCCUUCGGUGGGGCGAUAGCGCCAACGUUCUCAACUAUGACACGCAAAACGCGUGCUCCGUUGAAUGGAGUUUAUCAUG | ≤ -4.2
4 | GGAUCUUCUCGAUCUAACAAAAAAGACAAAUCUGCCACAAAGCUUGAAAGCCUCUUCGGAUGCAGUGGCGGCAGCCUUCGGUGGUGCAAUAGCGCCAUCGUUCUCAACUAUGACACGCAAAACGCGUGCUCCGUUGUAUGGAGUUUAUCAUG | ≤ -4.2
5 | GGAUCUUCUCGAUCUAACAAAAAAGACAAAUCUGCCACAAAGCUUGAAAGCAUCUUCGGAUGCAGAGGCGGCAGCCUUCGGUGGUGCGAUAGCGCCAAAGUUCUCAACUAUGACACGCAAAACGCGUGCUCCGUUGAAUGGGGUUUAUCUUG | ≤ -4.2
6 | GGAUCUUCUCGAUCUAACAAAAAAGACAAAUCUGCCACAAAGCUUGUGAGCAUCGUCGGAUGCAGAGACGGCAGCCUUCGGUGUCGCGAUAGCGCCAACGUUCUCAACUAUGACACGCAAAACGCGUGCUCCGUUGAAUGGAGUUUAUCAAG | ≤ -4.2
7 | GGAUCUUCUCGAUCUAACAAAAAAGACAAAUCUGCCACAAAGCUUGAAAGCAUCUUCGGAUGCAGAGGCGGCGGCCUUGGGUGGCGAAAUAGCGCCAACGUUCUCAACUAUGACACACAACACGCGUGCUCCGUUGAAUGGAGUUUAUCAUG | ≤ -4.2
8 | GGAUCUUCUCGAUCUAACAAAAAAGACAAAUCUGCCACAAAGCUUGAAAGCAUCUUCGGAUGCAGAGGCGGCAGUCUUCGGUGGCGCAAUAGCGCCAAGGUUCUCAACUAUGACACGCAAAACGCGUGCUCCGUUGAAUGGAGUUUAUCAUG | ≤ -4.2
9 | GGAUCUUCUCGAUCUAACAAAAAAGACAAAUCUGCCACAAAGCUUGAAAGCAUCUUCGGAUGCAGAGGCGGCAGUCUUCGGUGGCGAGAUAGCGCCAACGUUCUCAACUAUGACACGCAAAACGCGUGCUCCGUUGAAUGGAAUUUAUCAUG | ≤ -4.2
10 | GGAUCUUCUCGAUCUAACAAAAAAGACAAAUCUGCCACAAAGCUUGAAAGAAUCUACGUAUGCAGAGCCGGCAGCCUUCGGUGGCGCGAUAGCUCCAACGUUCUCAACUAUGACACGCAAAACGCGUGCUCCGUUGAAUGGAGUUUAUCAUG | ≤ -4.2
11 | GGAUCUUCUCGAUCUAACAAAAAAGACAAAUCUGCCACAAAGCUUGAAAGCGUCGUCGGAUGCAGAGGCCGCAGCCUUCGGUGGCGCGAUAGCGCAAACGUUCUCAACUAUGACACGCAAAACGCGUGCUCCGUUGAAUGGAGUUUAUCAUG | ≤ -4.2
12 | GGAUCUUCUCGAUCUAACAAAAAAGACAAAUCUGCCACAAAGCUUGAAAGCAUCUUCGGAUGCAGAGGCGGCAGCCUUCGGUGGCGCGAUAGCGCCAACGUUGUCAUCUAUGACACGCAAAACGCGUGCUCCGUUGAAUGGAGUUUCUCAUG | ≤ -4.2
13 | GGAUCUUCUCGAUCUAACAAAAAAGACAAAUCUGCCACAAAGCUUGAAAGCAUCUUCCGAUGCAGAGGCGGCAGCCUGCGGUGGCGCAAUAGCGCCAACGUUCUCAACUAUGACACGAAAAACGCGUGCUCCGAUGAAUGGGGUUUAUCAUG | ≤ -4.2
14 | GGAUCUUCUCGAUCUAACAAAAAAGACAAAUCUGCCACAAAGCUUGAAAGCAUCUUCGGGUGCAGAGGCGGCAGCCUUCGGUUGCGCGAUAGCGCCAACGUUCUCAACUAUGACACGCAAAACGCUUGCUCCGCUGAAUGGAGUUUAUCAUG | -3.58
15 | GGAUCUUCUCGAUCUAACAAAAAAGACAAAUCUGCCACAAAGCUUGAAAGCAUCUUCGGAUACAGAGCCGGCAGCCUGCGGUGGCGAGAUUGCGCCAUCGUUCUCAACUAUGACACGCAAAACGCGUGCUCCGUUGAAUGGAGUUUAUCAUG | ≤ -4.2
16 | GGAUCUUCUCGAUCUAACAAAAAAGACAAAUCUGCCACAAAGCUUGUGAGCAUCUUCGGAUGCAGAGGCGGCAGCCUUCGGUGGCGCGAAAGCGGCAACGUUCUCAACUAUGACACGCAAAACGCGUGCUCCGUUGAAUGGAGUUUAUCAUG | ≤ -4.2
17 | GGAUCUUCUCGAUCUAACAAAAAAGACAAAUCUGCCACAAAGCUUGAAAGCAUCUUCGGAUGCAGAGGCGGCGGCCUUCGGUGGCGGGUUAGCGCAAACGUUCUCAACUAUGACACGCAAAACGCGUGCUCCGUUAAAUGGAGUUUAUCAUG | ≤ -4.2
18 | GGAUCUUCUCGAUCUAACAAAAAAGACAAAUCUGCCACAAAGCUUGUGAGCAUCUUCGGAAGCAGAGGCGGCAGCCUUCGGUGGCGCGAUAGCGCCAACGUUCUCAACUAUGACACGCAAAACGCGUGCUCCGUUGAAUGGAGUUUAUCAUG | -1.41
19 | GGAUCUUCUCGAUCUAACAAAAAAGACAAAUCUGCCACAAAGCUUGAAAGCAUCUUCGGAUGCAGAGGCGGCAGCCUUCGGUGGCGGGAUAGCGCCAACGUUCUCAACUAUGACACGUAAAACGCGUGCUCCGUUGAAUGGAGUUUAUCAUG | ≤ -4.2

Row | Variant | polymerase ribozyme fitness (log ratio)
20 | GGAUCUUCUCGAUCUAACAAAAAAGACAAAUCUGCCACAAAGCUUGAAAGCAUCUUCGGAUGCAGAGGCGGCAGCCUUCGGUGGGGCGAUAGCGCCAACGUUCUCAACUAUGACACGCAAAACGGGUGCUCCGUUGAAUGGAGUUUAUCAUG | -4.1
21 | GGAUCUUCUCGAUCUAACAAAAAAGACAAAUCUGCCACAAAGCUUGAACGGAUCUUCGGAUGCAGAGGCGGCAGCCUUCGGUGGUGCGGUAGCGCCUACGUUCGCAUCUAUAACACGCAGAACGCGUGCUCCGUUGAAUGGAGUUUAUCAUG | ≤ -4.2
22 | GGAUCUUCUCGAUCUAACAAAAAAGACAAAUCUGCCACAAAGCUUGAAAGCAUCUUCGGAUGCAGAGGCGGCAGCCUUCGGUGGCGCGAUAGCGCAAACUUUCUCAACUAUGACACGCAAAACGCGUGCUCCGUUGAAUGGAGUUUAUCAUG | ≤ -4.2
23 | GGAUCUUCUCGAUCUAACAAAAAAGACAAAUCUGCCACAAAGCUUGAAAGCUUCUUCGGAUGCAGAGGCGGCAGCCUUCGGUGGCGCGAUAGCGCCAACGUUCUCAACUAUGACACGCAAAACGCGUGCUCCGUUGAAUCGAGUUUAUCAUG | ≤ -4.2
24 | GGAUCUUCUCGAUCUAACAAAAAAGACAAAUCUGCCACAAAGCUUGAAAGCAUCUUCGGAUGCAGCGGCGACAGCCUUCGGUGGCGCGAUAGCGUCAACGUUCGCAACUAGGACACGUAAAACGCGUGCUCCGUGGAAUGGAGUUUUUCAUG | ≤ -4.2
25 | GGAUCUUCUCGAUCUAACAAAAAAGACAAAUCUGCCACAAAGCUUGAAAGCAUCUUCGGAUGCAGAGGCGGCAGCCUUCGGUGGCGCGAUAGCGCCGACGUUCUCAAUUAUGACACGCAAAACGCGUGCUCCGUUGAAUGGAGUUUAUCAUG | ≤ -4.2
26 | GGAUCUUCUCGAUCUAACAAAAAAGACAAAUCUGCCACAAAGCUUGAAAGCAUCUUCGGAUGCAGAGGCGGCAGCCUUCGGUGGCGCGAUAGCGCUAACGUUCUCAACUAUGACACGCAAAACGCGUGCUCCGUUGAAUGGAGUUUAUCAUG | -0.356
27 | GGAUCUUCUCGAUCUAACAAAAAAGACAAAUCUGCCACAAAGCUUGAAAGCCUCUACGGAUGCAGAGGCGGCAGCCUUCGGUAGCGCGAUAGCGCCAACGUUCUCAACUAUGACACGCAAAACGCGUGCUCCGUUGAAUGGAGUUUAUCAUG | ≤ -4.2
28 | GGAUCUUCUCGAUCUAACAAAAAAGACAAAUCUGCCACAAAGCUUGAAAGCAUCUUCGGAUGCAGAGACGGCAGCCUUCGGUGGCGCAAUAACGCCAACGUUCUCAACUAUGACACGCAAAACGCGUGCUCCGUUGAAUGGAGUUUAUCAUG | ≤ -4.2
29 | GGAUCUUCUCGAUCUAACAAAAAAGACAAAUCUGCCACAAAGCUUGAAAGCAUCUUCGGAUGCAGAGGCGGCAGCCUUAGGUGGGGCGAUAGCGCCAACGUUCUCAACUUUGACACGCAAAACACGUGCUCCGUUGAAUGGAGUUUAUCAUG | ≤ -4.2
30 | GGAUCUUCUCGAUCUAACAAAAAAGACAAAUCUGCCACAAAGCUUGAAAGCAUCUUCGGAUGCAGAGGCGGCAGCCUUUGGUGGCGCGAUAGCGCCAACGUUCUCAACUAUGACACGCAAAACGCGUGCUCUGUUGAAUGGAGUUUAUCAUG | ≤ -4.2
31 | GGAUCUUCUCGAUCUAACAAAAAAGACAAAUCUGCCACAAAGCUUGAAAGUAUCUUCGGAUGCAGAGGCGGCAGCCUUCGGUGGCGCGAUAGCGCCAACGUUCUCAACUAUGUCACGCAAAACGCGUGCUCCGUUGAAUGGAGUUUAUGAUG | ≤ -4.2
32 | GGAUCUUCUCGAUCUAACAAAAAAGACAAAUCUGCCACAAAGCUUGAAAGCCUCUUCGGAUGCAGAUGCGGCAGCCUUCGGUGGCGUGAUAGCGCCAACGUUCUCAACUAUGACACGCAAAACGCUUGCUCCGUUGAAUGGAGUUUAUCAUG | ≤ -4.2
33 | GGAUCUUCUCGAUCUAACAAAAAAGACAAAUCUGCCACAAAGCUUGAAAGCAUCUUCGGAUGCAGAUGCGGCAGCCUUCCGUGGUGCGAUAGCGCCAACGUUCUCAACUAUGACACGCAAAACGCGUGCUCUGUUGAAUGGAGUUUAUCAUG | ≤ -4.2
34 | GGAUCUUCUCGAUCUAACAAAAAAGACAAAUCUGCCACAAAGCUUGAAAGCAUCUUCGGAUGCAGAGGCGGCAGCCUUCGGUGGAGCGAUAGCGCCAACGUUCUCAACUAUGACACGCAAAACGCGUGCUCCUUUGAAUGGAGUUUAUCAUG | ≤ -4.2
35 | GGAUCUUCUCGAUCUAACAAAAAAGACAAAUCUGCCACAAAGCUUGAAAGCAUCUUCGGAUGCAGAGGCGGCAGCCUUAGGUGGCGCGAUAGCGCCAAGGUUCUCAACUAUGACACGCAAAACGCGUGCUCCGUUGAAUGGAGUUUAUCAUG | ≤ -4.2
36 | GGAUCUUCUCGAUCUAACAAAAAAGACAAAUCUGCCACAAAGCUUGAAAGCAUCUUCGGAUGCAGAGGCGGCGGCCUUCGGUGGCGCGAUAGCGCCAACGUUCUCAACUCUGACACGCAACACGCGUGCUCCGUUGAAUGGAGUUUAUCAUG | ≤ -4.2
37 | GGAUCUUCUCGAUCUAACAAAAAAGACAAAUCUGCCACAAAGCUUGAAAGCAUCUUCGGGAGCAGAGGCGGCAGCCUUCGGUGGCGCGAUAGCGCCAACGUUGUCAACUAUGACACGCAAAACGCGUGAUCCGUUGAAUGGAGUUUAUGAUG | ≤ -4.2
38 | GGAUCUUCUCGAUCUAACAAAAAAGACAAAUCUGCCACAAAGCUUGAAAGCAUCUUCGGAUGCAGAGGCGGCAGCCUUCGGUGGCGCGAUAGCGCAAACGUUCUCAACUAUGACACGCAAAACGCGAGCUCCGUUGAAUGGAGUUUAUCAUG | ≤ -4.2
